In all, about 310,000 compounds went through this assay and about 2,200 (0.71%) showed an effect of 50% or more. Effects have a minus sign here. The list shows a part of the results.
target: human ether-à-go-go-related gene (hERG) potassium channel (human, UniProt Q12809); experiment: primary screen, population patch clamp on CHO cells stably expressing hERG
Sequence (Q12809 whole entry, looked up): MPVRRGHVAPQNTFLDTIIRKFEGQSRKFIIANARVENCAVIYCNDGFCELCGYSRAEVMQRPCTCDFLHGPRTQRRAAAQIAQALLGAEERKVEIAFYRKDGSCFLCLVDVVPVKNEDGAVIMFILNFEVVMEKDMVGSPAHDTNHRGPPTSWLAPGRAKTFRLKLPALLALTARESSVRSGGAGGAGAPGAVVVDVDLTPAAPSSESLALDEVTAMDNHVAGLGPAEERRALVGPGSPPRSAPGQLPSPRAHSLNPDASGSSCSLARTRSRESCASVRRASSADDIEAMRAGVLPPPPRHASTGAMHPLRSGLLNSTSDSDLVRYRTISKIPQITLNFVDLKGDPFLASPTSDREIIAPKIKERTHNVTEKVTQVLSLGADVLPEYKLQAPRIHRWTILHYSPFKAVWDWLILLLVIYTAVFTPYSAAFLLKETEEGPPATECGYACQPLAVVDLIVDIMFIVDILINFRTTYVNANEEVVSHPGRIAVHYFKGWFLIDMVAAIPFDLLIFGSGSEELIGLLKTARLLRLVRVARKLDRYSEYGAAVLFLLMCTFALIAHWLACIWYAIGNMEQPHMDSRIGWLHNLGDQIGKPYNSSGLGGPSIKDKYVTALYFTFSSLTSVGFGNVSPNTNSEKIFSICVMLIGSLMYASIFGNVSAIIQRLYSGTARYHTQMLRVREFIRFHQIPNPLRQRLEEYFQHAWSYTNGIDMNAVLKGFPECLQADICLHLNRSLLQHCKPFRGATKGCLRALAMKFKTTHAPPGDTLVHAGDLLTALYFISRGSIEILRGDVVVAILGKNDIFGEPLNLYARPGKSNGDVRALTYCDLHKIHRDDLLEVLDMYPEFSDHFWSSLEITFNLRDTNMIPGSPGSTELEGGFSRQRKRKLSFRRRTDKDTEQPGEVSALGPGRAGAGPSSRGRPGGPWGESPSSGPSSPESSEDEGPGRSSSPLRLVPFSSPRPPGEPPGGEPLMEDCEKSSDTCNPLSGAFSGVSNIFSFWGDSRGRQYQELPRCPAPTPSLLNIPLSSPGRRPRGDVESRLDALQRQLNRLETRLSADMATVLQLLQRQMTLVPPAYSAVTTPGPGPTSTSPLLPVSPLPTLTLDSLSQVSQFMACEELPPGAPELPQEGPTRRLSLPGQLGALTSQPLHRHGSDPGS

SMILES | hERG current change (%, negative = inhibition) at 1uM [%]
c1ccc(-n2nnnc2-c2cccnc2)cc1 | 9.6
Cc1cc(C)nc(N/C(=N/S(=O)(=O)Cc2ccccc2)Nc2ccccc2)n1 | 10.7
CC(=O)Nc1cccc(C(=O)OCc2csc(CC(=O)Nc3ccccc3C)n2)c1 | -1.62
O=C(COC(=O)C1CC1)Nc1ccc(OC(F)F)cc1 | -6.55
CCOC(=O)C(NCc1ccc(F)cc1)(NC(=O)c1ccccc1)C(F)(F)F (stereo not drawn) | 5.41
Cc1nnc(NC(=O)c2cc(-c3ccncc3)nc3c(C)cccc23)s1 | 10.4
CCN(CC)c1ccc(CNc2nc3ccccc3n2CCN2CCCCC2)cc1 | -18
CC(=O)c1ccc(OC(=O)c2ccc(Br)o2)cc1 | 0.133
O=C(CSc1nnc2ccccn12)NCCc1ccc(Cl)cc1 | 2.04
CCOc1ccc(C(C(=O)NC2CCCC2)N(C(=O)c2snc(C(N)=O)c2N)C2CCCC2)cc1 (stereo not drawn) | -0.169
O=S(=O)(c1ccccc1)c1nc(-c2ccc(F)cc2)oc1NCC1CCCO1 (stereo not drawn) | 8.29
CN1CCN(S(=O)(=O)c2ccc(NC(=O)COc3ccccc3)cc2)CC1 | 20.4
O=C(c1ccc(-c2cccc(Cl)c2Cl)o1)N1CCOCC1 | 1.86
CNc1nc(CCN2C(=O)c3ccccc3C2=O)cs1 | 11.6
O=C(CSc1n[nH]c(=O)n1Cc1ccco1)Nc1ccccc1Cl | 6.62
CCCCSc1nc2sc3c(c2c(=O)[nH]1)CCC3 | -1.1
CCOC(=O)C1(CCOc2ccccc2)CCN(Cc2cccc(-n3cccn3)c2)CC1 | -68.5
COC(=O)c1ccc(NC(=O)CSc2ccc(-c3ccccn3)nn2)cc1 | 15.6
CNC(=O)C(=O)NCC(c1cccs1)S(=O)(=O)c1ccc(F)cc1 (stereo not drawn) | 7.43
CC(C)CN(C(=O)COC(=O)Cc1c[nH]c2ccccc12)c1c(N)n(Cc2ccccc2)c(=O)[nH]c1=O | 13
COc1ccc(-c2cc(C(=O)NC3CCCC3)c3ccccc3n2)cc1 | 6.47
CCc1ccc(N(C(C)=O)C2C=CS(=O)(=O)C2)cc1 (stereo not drawn) | 6.06
Cc1cccc(C)c1OCC(=O)OCC(=O)c1ccc2c(c1)NC(=O)CO2 | 5.24
Cc1ccc(S(=O)(=O)NCCC(=O)Nc2cccc(S(N)(=O)=O)c2)cc1C | 12.5

Reference: paper PMC4336329 (PLoS ONE, 2015)
